# Test results as given in PubChem BioAssay (NCATS).
# Where “and” joins values, the source holds several entries; their conditions need not be identical. Identical values can stand only once. Inconclusive means that the source gave no clear call. Such entries were picked first, then a sample of the others. For some assays here: Potencies of inconclusive entries are doubtful fits and often do not repeat. Calls of active or inactive are those of the source. Calls follow the shape of the dose curve; as a rule, active = well fitted curve in the direction sought with a large enough effect; inconclusive = small, poorly fitted or top-dose-only effect, or another doubt; inactive = no such curve, though single readings can be large; an effect the other way counts as inactive or inconclusive.
# Legend:
# [1] = biological target: Calcium and integrin-binding protein 1 (Homo sapiens) (UniProt Q99828); assay: Primary qHTS for Identification of Calcium Integrin Binding Protein 1 (CIB1) Competitor (AID 1508620); also: potency is read from the fitted curve at half-maximal effect
# Summary of the method: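 Fluorescence polarization competition: CIB1-GST (1 uM final) preincubated with compound 15 min at room temperature, then FITC-labeled alphaIIb peptide (100 nM final) added for another 15 min. Polarization read at Ex 480/Em 540.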
# [2] = Primary redox qHTS assay for identification of artifact compounds. (AID 1845223); also: potency is read from the fitted curve at half-maximal effect
# Summary of the method: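 Redox-cycling detection via DTT (250 uM final) oxidation coupled to Amplex Red (25 uM)/HRP (250 mU/mL) in HBSS. 15 min preincubation plus 30 min after DTT, room temperature. Ex/Em 525/598 nm; 4-parameter Hill fit against DMSO and 10 uM DA3003.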
# [3] = tested on: JEG-3; assay: Primary qHTS to identify gynecologic anti-cancer compounds using libraries of approved drugs and bioactive compounds (AID 1345084); details: Gynecologic cancer cell panel viability, ATPlite luminescence, 48 h; series mostly up to 57.5 µM; also: potency is read from the fitted curve at half-maximal effect; nearly all actives have a fitted effect of over 55% in size
# Summary of the method: (§1)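 ATP-based viability (ATPlite), 1,000 cells/well, 16 h pre-incubation, 48 h compound at 37 C, 5% CO2, 15 min RT before read.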
# [4] = qHTS to identify inhibitors of the type 1 interferon - major histocompatibility complex class I in skeletal muscle: primary screen against the NCATS Mechanism Interrogation Plate v5.0 (MIPE) Libary (AID 1347411); details: iHSKM cells + IFN-b, HiBiT-tagged MHC-I luminescence, 24 h; activity change, negative = inhibition: at 45.8 µM (top of the series); also: nearly all actives have a fitted effect of over 65% in size
# Summary of the method: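 Luminescence from CRISPR HiBit-tagged endogenous HLA-B in human myoblasts reported MHC class I level after 24 h of IFN-beta (4 ng/ml) plus compound. Compounds ran as 11-point 1:3 series, top 46 uM final.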
# [5] = biological target: Glutathione peroxidase 1 (Homo sapiens) (UniProt P07203); assay: Primary qHTS Assay for Inhibitors of Recombinant Selenoprotein Glutathione Peroxidase 1 (GPX1) (AID 1845191); details: activity, negative = inhibition: at 48.8 µM (top of the series); also: nearly all actives have a fitted effect of over 65% in size; also: potency is read from the fitted curve at half-maximal effect
# Summary of the method: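 GPX1 10 nM, GR 100 nM, GSH 1 mM, NADPH 0.5 mM, CHP 0.5 mM (final). 30-min cpd preincubation, RT. Ex340/Em450 read t=0, t=15 min.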
# [6] = biological target: Phospholipid hydroperoxide glutathione peroxidase GPX4 (Homo sapiens) (UniProt P36969); assay: Primary qHTS Assay for Inhibitors of Recombinant Selenoprotein Glutathione Peroxidase 4 (GPX4) (AID 1845192); also: nearly all actives have a fitted effect of over 65% in size; also: potency is read from the fitted curve at half-maximal effect
# Summary of the method: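 qHTS, GR-coupled: GPX4 200 nM + cpd 30 min RT → GSH 1 mM, NADPH 0.5 mM, GR 100 nM → CHP 0.5 mM start; fluor 340/450 at t0 and t15 min; no-enzyme wells as control.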
# [7] = qHTS of pediatric cancer cell lines to identify multiple opportunities for drug repurposing: Primary screen for DAOY cells (AID 1347090); details: DAOY medulloblastoma viability, CellTiter-Glo luminescence, 48 h; activity change, negative = cytotoxic: at 46 µM (top of the series); also: potency is read from the fitted curve at half-maximal effect; nearly all actives have a fitted effect of over 55% in size
# Summary of the method: (§2)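 Eight- or eleven-point concentration series, 48 h treatment at 37 degrees C in growth media; readout CellTiter-Glo luminescence. Potency and efficacy were taken from the concentration-response curves.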
# [8] = qHTS of pediatric cancer cell lines to identify multiple opportunities for drug repurposing: Primary screen for SJ-GBM2 cells (AID 1347091); also: potency is read from the fitted curve at half-maximal effect
# Summary of the method: as §2
# [9] = qHTS of pediatric cancer cell lines to identify multiple opportunities for drug repurposing: Primary screen for SK-N-MC cells (AID 1347093); details: SK-N-MC viability, CellTiter-Glo luminescence, 48 h; activity change, negative = cytotoxic: at 46 µM (top of the series); also: potency is read from the fitted curve at half-maximal effect
# Summary of the method: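 Metabolically active cells were quantified by ATP-dependent luminescence (CellTiter-Glo, 15 min at room temperature) following 48 h treatment. Cells had been plated at 500-1,000 per well and settled for 5 h beforehand.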
# [10] = qHTS of pediatric cancer cell lines to identify multiple opportunities for drug repurposing: Primary screen for NB-EBc1 cells (AID 1347095); also: potency is read from the fitted curve at half-maximal effect
# Summary of the method: (§3)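 500-1,000 cells/well; 5 h pre-incubation 37 °C/5% CO2; compound pinned; 48 h; CellTiter-Glo, 15 min RT; luminescence. MIPE 11-pt from 0.78 nM, NPC 8-pt from 0.59 nM final. Bortezomib 2.3 µM final as positive control.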
# [11] = qHTS of pediatric cancer cell lines to identify multiple opportunities for drug repurposing: Primary screen for BT-12 cells (AID 1347101); also: potency is read from the fitted curve at half-maximal effect; nearly all actives have a fitted effect of over 25% in size
# Summary of the method: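 Cells (500-1,000/well) rested 5 h, then received compounds for 48 h; metabolically active cells were measured by CellTiter-Glo luminescence. Final concentrations spanned up to 46 µM (MIPE, 11-point) or 0.59 nM-46 µM (NPC, 8-point) in primary screens, 11-point in follow-ups.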
# [12] = qHTS of pediatric cancer cell lines to identify multiple opportunities for drug repurposing: Primary screen for Rh41 cells (AID 1347108); also: nearly all actives have a fitted effect of over 70% in size; also: potency is read from the fitted curve at half-maximal effect;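 as to activity change, negative = cytotoxic: luminescence drop marks cytotoxic hits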
# Summary of the method: as §3
# [13] = tested on: Zika virus NS2B-NS3 protease (linked construct); assay: Primary screen NINDS Rhodamine qHTS for Zika virus inhibitors (AID 1347160); also: potency is read from the fitted curve at half-maximal effect; nearly all actives have a fitted effect of over 55% in size
# Summary of the method: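 Aprotinin served as in-plate control. Conditions: 25 nM linked NS2B-NS3, pH 8.0 Tris buffer, titrated compounds, 15 min preincubation and 15 min reaction with 1.5 microM Rhod110 substrate at room temperature.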
# [14] = Primary qHTS for small molecule stabilizers of the endoplasmic reticulum resident proteome: Secreted ER Calcium Modulated Protein (SERCaMP) assay (AID 1508630); details: SH-SY5Y GLuc-SERCaMP (Gaussia luciferase released on ER calcium loss) secretion, thapsigargin, luminescence; activity change, negative = inhibition: at 38.4 µM (top of the series); also: potency is read from the fitted curve at half-maximal effect
# Summary of the method: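 The SH-SY5Y reporter protocol was run at 3 concentrations up to 38.3 uM (primary) or 11 concentrations (follow-up): 16 h compound, 100 nM thapsigargin for 4 h, then extracellular luciferase luminescence.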
# [15] = biological target: Luciferin 4-monooxygenase (Photinus pyralis) (UniProt P08659); assay: Primary firefly luciferase (FLuc) qHTS assay for identification of artifact compounds. (AID 1845220); also: potency is read from the fitted curve at half-maximal effect; nearly all actives have a fitted effect of over 60% in size
# Summary of the method: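 Reaction readout was CCD-imaged luminescence, taken 5 min after adding 10 nM purified firefly enzyme to compound-treated wells holding 10 uM luciferin and ATP in pH 7.6 buffer.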
# [16] = tested on: GB4; assay: qHTS profiling for inhibitors of Plasmodium falciparum proliferation (AID 504749); also: nearly all actives have a fitted effect of over 60% in size; details: P. falciparum in erythrocytes, SYBR Green DNA, 72 h; series mostly up to 28.7 µM
# Summary of the method: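 Quantitative HTS: compounds pinned into medium, infected erythrocytes added (0.3% parasitemia, 2.5% hematocrit), 72 h culture at 37 C under 5% CO2. Saponin/Triton lysis with SYBR Green I, overnight RT, then fluorescence read.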
# [17] = tested on: Es-2; assay: Primary qHTS to identify gynecologic anti-cancer compounds using libraries of approved drugs and bioactive compounds (AID 1345084); details: Gynecologic cancer cell panel viability, ATPlite luminescence, 48 h; series mostly up to 57.5 µM; also: potency is read from the fitted curve at half-maximal effect; nearly all actives have a fitted effect of over 55% in size
# Summary of the method: as §1
# Tags tell the direction and shape of the fitted curve.
# UniProt P07203, sequence (P07203 whole entry, looked up): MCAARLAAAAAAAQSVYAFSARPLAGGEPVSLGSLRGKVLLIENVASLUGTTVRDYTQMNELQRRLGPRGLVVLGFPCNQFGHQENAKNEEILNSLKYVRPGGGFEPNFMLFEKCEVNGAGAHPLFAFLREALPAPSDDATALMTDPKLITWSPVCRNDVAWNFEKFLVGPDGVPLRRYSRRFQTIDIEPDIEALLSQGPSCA
# UniProt Q99828, sequence (Q99828 whole entry, looked up): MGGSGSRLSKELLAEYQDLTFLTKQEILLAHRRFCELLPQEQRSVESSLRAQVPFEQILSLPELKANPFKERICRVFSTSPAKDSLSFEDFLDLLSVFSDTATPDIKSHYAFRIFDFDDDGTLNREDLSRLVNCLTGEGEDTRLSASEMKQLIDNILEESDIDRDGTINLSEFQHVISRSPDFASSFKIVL
# UniProt P36969, sequence (P36969 whole entry, looked up): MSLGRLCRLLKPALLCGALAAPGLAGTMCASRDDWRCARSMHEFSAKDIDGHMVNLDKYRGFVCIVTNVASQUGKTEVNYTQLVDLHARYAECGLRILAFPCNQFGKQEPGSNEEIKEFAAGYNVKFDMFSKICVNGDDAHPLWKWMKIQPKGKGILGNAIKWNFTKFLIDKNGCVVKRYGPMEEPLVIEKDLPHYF
structure (smiles),measurement,setting,value
C=CC(=O)Nc1ccc(CN2C(=O)N(c3cc(OC)cc(OC)c3)Cc3cnc(Nc4ccc(N5CCN(C)CC5)cc4)nc32)cc1,Potency,[1],"inconclusive: 56.2 µM [inhibitor, partial curve, poor fit]"
same,Potency,[2],inactive
same,Potency,[3],"inconclusive: 28.2 µM [cytotoxic, single point]"
CN[C@@H]1[C@H](O[C@H]2[C@H](O[C@@H]3[C@@H](O)[C@H](O)[C@@H](N=C(N)N)[C@H](O)[C@H]3N=C(N)N)O[C@@H](C)[C@]2(O)C=O)O[C@@H](CO)[C@H](O)[C@H]1O,Potency,[4],inactive
C=CC(=O)Nc1cccc(Nc2nc(Nc3ccc(NC4CN(CCF)C4)cc3OC)ncc2C(F)(F)F)c1,Potency,[5],inactive
same,Potency,[6],"inconclusive: 12.8 µM [inhibitor, partial curve]"
Cc1cc(C(C#N)c2ccc(Cl)cc2)c(Cl)cc1NC(=O)c1cc(I)cc(I)c1O (configuration not stated),Potency,[7],"inconclusive: 21.1 µM [cytotoxic, single point]"
same,Potency,[8],"inconclusive: 26.6 µM [cytotoxic, single point]"
same,Potency,[9],"inconclusive: 33.5 µM [cytotoxic, single point]"
same,Potency,[10],"inconclusive: 29.9 µM [cytotoxic, single point]"
same,Potency,[11],"inconclusive: 38.9 µM [cytotoxic, single point]"
same,Potency,[12],inactive
same,Potency,[13],active: 3.16 µM
same,Potency,[1],"inconclusive: 31.6 µM [inhibitor, full curve] and inconclusive: 22.4 µM [inhibitor, full curve, poor fit]"
same,Potency,[14],"inconclusive: 2.82 µM [inhibitor, full curve, poor fit]"
same,Potency,[5],"inconclusive: 25.5 µM [inhibitor, partial curve, poor fit]"
same,Potency,[15],"inconclusive: 37.9 µM [inhibitor, single point]"
same,Potency,[16],inactive
CC1=CCC[C@@H]2[C@](CCc3ccoc3)(C(=O)O)[C@H](C)CC[C@@]12C,Potency,[13],"inconclusive: 28.2 µM [inhibitor, single point]"
CC1(C)C[C@H](O)C[C@@]2(C)OC(=O)C=C12,Potency,[13],"inconclusive: 5.62 µM [inhibitor, full curve]"
CCCCCCCCCCCC[N+](C)(C)Cc1ccccc1,Potency,[7],active: 16.8 µM
same,Potency,[8],inactive
same,Potency,[12],active: 21.1 µM
same,Potency,[1],"inconclusive: 50.1 µM [inhibitor, partial curve]"
same,Potency,[3],"inconclusive: 8.91 µM [cytotoxic, partial curve, poor fit]"
COc1cc(-c2ncn(/C=C\C(=O)OC(C)C)n2)cc(C(F)(F)F)c1,Potency,[15],"inconclusive: 30.1 µM [inhibitor, single point]"
same,Potency,[2],"inconclusive: 13.4 µM [activator, partial curve, poor fit]"
same,Potency,[17],active: 891 nM
same,Potency,[3],"inconclusive: 3.55 µM [cytotoxic, partial curve, poor fit]"
Cc1c(F)ccc(C(=O)Nc2cc([N+](=O)[O-])ccc2N2CCN(C)CC2)c1Cl,Potency,[13],"inconclusive: 4.47 µM [inhibitor, full curve, poor fit]"
COc1cc2c(cc1OCCCN1CCCC1)N=C(N)C21CCC1,Potency,[6],inactive
same,Potency,[2],"inconclusive: 26.7 µM [activator, partial curve]"
